The results in this text go back to the antibiotic and cytotoxicity screens of Wong et al. (2023).

This is one part of the list.

One experiment relates to HSkMC. Put plainly: cytotoxicity call (relative viability < 0.9). Conditions: 10 µM.
For a further experiment, the system named is S. aureus RN4220. Put plainly: growth inhibition call (relative growth <= 0.2). Conditions: 50 µM.

As to `C[C@H](CO)N1C[C@H](C)[C@@H](CN(C)C(=O)NC2CCCCC2)OCCCC[C@H](C)Oc2ccc(NS(=O)(=O)c3ccc(F)cc3)cc2C1=O`, in the experiment with HSkMC, the cytotoxicity call was “inactive”. Also, the growth inhibition call with S. aureus RN4220 was “inactive”.

In the case of `c1csc(Cn2cccc2)c1`, in the experiment with HSkMC, the cytotoxicity call is “inactive”. The growth inhibition call with S. aureus RN4220 is “inactive”.

In the case of `COc1ccc(S(=O)(=O)N(C)C[C@H]2Oc3c(cccc3N(C)C)C(=O)N([C@H](C)CO)C[C@@H]2C)cc1`, the cytotoxicity call in the experiment with HSkMC was “inactive”. In the experiment with S. aureus RN4220, the growth inhibition call was “inactive”.

With `C[C@@H]1CCCCO[C@@H](CN(C)C(=O)C2CCCCC2)[C@H](C)CN([C@@H](C)CO)C(=O)c2cc(NC(=O)c3ccncc3)ccc2O1`, the cytotoxicity call in the experiment on HSkMC is “inactive”. Further, the growth inhibition call in the experiment on S. aureus RN4220 was “inactive”.

`CC(C)=CCCC(C)=CCOc1ccc2ccc(=O)oc2c1`: the cytotoxicity call in the experiment with HSkMC was “inactive”. Moreover, the growth inhibition call with S. aureus RN4220 is “inactive”.

With `C[C@H](CO)N1C[C@H](C)[C@H](CN(C)C(=O)CN2CCOCC2)Oc2ncc(C3=CCCCC3)cc2C1=O`, in the experiment with HSkMC, the cytotoxicity call is “inactive”. For the same compound, the growth inhibition call in the experiment on S. aureus RN4220 is “inactive”.

As for `C[C@H](CO)N1C[C@H](C)[C@H](CN(C)Cc2ccc(-c3ccccc3)cc2)Oc2c(NC(=O)c3ccncc3)cccc2C1=O`, the cytotoxicity call in the experiment on HSkMC is “inactive”. In the experiment on S. aureus RN4220, the growth inhibition call was “inactive”.

As for `C[C@H](CO)N1C[C@H](C)[C@H](CN(C)S(=O)(=O)c2cn(C)cn2)Oc2ncc(C#CCN(C)C)cc2C1=O`, the cytotoxicity call in the experiment on HSkMC is “inactive”. The growth inhibition call in the experiment on S. aureus RN4220 was “inactive”.

As for `Clc1ccc(C(Cn2ccnc2)OCc2c(Cl)cccc2Cl)c(Cl)c1.O=[N+]([O-])O` (stereo not given), in the experiment with HSkMC, the cytotoxicity call is “inactive”. Besides, in the experiment with S. aureus RN4220, the growth inhibition call is “inactive”.

As for `C[C@H]1CN([C@@H](C)CO)C(=O)c2cccc(NC(=O)c3ccc(-c4nccs4)cc3)c2O[C@H]1CN(C)S(C)(=O)=O`, the cytotoxicity call with HSkMC was “inactive”. In the experiment with S. aureus RN4220, the growth inhibition call is “inactive”.

On to `CC(=O)O[C@H]1[C@H](O)[C@H](O)[C@H](O[C@@H]2[C@@H](Oc3cc(O)c4c(=O)cc(-c5ccc(O)c(O)c5)oc4c3)O[C@@H](C(=O)O)[C@H](O)[C@@H]2O)O[C@@H]1C`, for which, in the experiment with HSkMC, the cytotoxicity call is “inactive”. Further, in the experiment with S. aureus RN4220, the growth inhibition call was “inactive”.

As for `Cc1ccc(S(=O)(=O)Nc2ccc3c(c2)C(=O)N([C@@H](C)CO)C[C@@H](C)[C@@H](CN(C)C(=O)Nc2ccccc2)OCCCC[C@H](C)O3)cc1`, the cytotoxicity call with HSkMC is “inactive”. For the same compound, the growth inhibition call with S. aureus RN4220 is “inactive”.

Take `Cc1noc(C)c1NC(=O)Nc1ccc2c(c1)C(=O)N([C@H](C)CO)C[C@@H](C)[C@H](CN(C)Cc1ccc(C(F)(F)F)cc1)OCCCC[C@@H](C)O2`: the cytotoxicity call with HSkMC was “inactive”. Moreover, in the experiment on S. aureus RN4220, the growth inhibition call was “inactive”.

For `C[C@H]1CN([C@@H](C)CO)C(=O)c2cccc(NC(=O)Nc3ccc(C(F)(F)F)cc3)c2O[C@H]1CN(C)C(=O)NC1CCCCC1`, in the experiment with HSkMC, the cytotoxicity call is “inactive”. The growth inhibition call with S. aureus RN4220 is “active”.

Take `C[C@@H]1CN([C@@H](C)CO)C(=O)c2cccc(NS(=O)(=O)c3ccc(F)cc3)c2O[C@@H]1CN(C)CC1CC1`: in the experiment on HSkMC, the cytotoxicity call was “inactive”. For the same compound, the growth inhibition call in the experiment with S. aureus RN4220 is “inactive”.

Regarding `C[C@@H]1CN([C@H](C)CO)S(=O)(=O)c2ccc(C#Cc3cccnc3)cc2O[C@@H]1CN(C)C(=O)CN(C)C`, the cytotoxicity call in the experiment on HSkMC is “inactive”. In the experiment on S. aureus RN4220, the growth inhibition call was “inactive”.

`CCO[C@H]1OC(C(N)=O)=C[C@@H](C)[C@@H]1CCCO`: the cytotoxicity call with HSkMC is “inactive”. Further, the growth inhibition call with S. aureus RN4220 was “inactive”.

For the compound `C[C@H](CO)N1C[C@H](C)[C@H](CN(C)C(=O)c2cccnc2)Oc2cc(C#CC3(O)CCCC3)ccc2S1(=O)=O`, in the experiment on HSkMC, the cytotoxicity call was “inactive”. Further, in the experiment on S. aureus RN4220, the growth inhibition call was “inactive”.

With `COc1ccc(Oc2cc(NCCC(F)(F)F)c3ncc(-c4ccc(C(=O)NC5CC5)c(C)c4)n3n2)c(F)c1F`, the cytotoxicity call in the experiment with HSkMC was “active”. In addition, in the experiment on S. aureus RN4220, the growth inhibition call was “inactive”.

Consider `C[C@@H]1CCCCO[C@@H](CN(C)S(=O)(=O)c2cn(C)cn2)[C@@H](C)CN([C@H](C)CO)C(=O)c2cc(NC(=O)c3ccncc3)ccc2O1`, for which, in the experiment with HSkMC, the cytotoxicity call is “inactive”. Besides, the growth inhibition call in the experiment on S. aureus RN4220 was “inactive”.

In the case of `CN1C(=O)c2cc(NC(=O)c3ccc(F)c(F)c3)ccc2OC[C@H]2O[C@@H](CC(=O)N3CCOCC3)CC[C@@H]21`, the cytotoxicity call in the experiment with HSkMC is “inactive”. Also, the growth inhibition call with S. aureus RN4220 was “inactive”.

On to `CC(=O)N(O)CCCCNC(=O)CCC(=O)N(O)CCCCCNC(=O)CCC(=O)N(O)CCCCCN`, for which the cytotoxicity call in the experiment on HSkMC was “inactive”. The growth inhibition call in the experiment on S. aureus RN4220 was “inactive”.

As for `Nc1nc(/C(=N/O)C(=O)N[C@@H]2C(=O)N3C(C(=O)O)=C(/C=C4\CCN([C@@H]5CCNC5)C4=O)CS[C@H]23)ns1`, in the experiment on HSkMC, the cytotoxicity call was “inactive”. Further, in the experiment on S. aureus RN4220, the growth inhibition call was “inactive”.

For the compound `C[C@@H]1CN([C@@H](C)CO)C(=O)c2cc(NC(=O)Nc3ccc4c(c3)OCO4)ccc2O[C@@H](C)CCCCO[C@H]1CN(C)C(=O)Nc1ccc(C(F)(F)F)cc1`, in the experiment on HSkMC, the cytotoxicity call is “inactive”. Also, the growth inhibition call with S. aureus RN4220 is “inactive”.

`C[C@@H]1CCCCO[C@@H](CN(C)C(=O)CCC(F)(F)F)[C@@H](C)CN([C@H](C)CO)C(=O)c2cc(NC(=O)Cc3ccccc3)ccc2O1`: in the experiment with HSkMC, the cytotoxicity call was “inactive”. For the same compound, in the experiment on S. aureus RN4220, the growth inhibition call was “inactive”.

Regarding `Cc1ccc(S(=O)(=O)Nc2ccc3c(c2)C(=O)N([C@H](C)CO)C[C@H](C)[C@@H](CN(C)Cc2ccc(Cl)c(Cl)c2)OCCCC[C@H](C)O3)cc1`, the cytotoxicity call in the experiment on HSkMC was “inactive”. Further, the growth inhibition call with S. aureus RN4220 is “inactive”.

As for `CC(=O)N(C)C[C@H]1Oc2ncc(C#C[C@H](C)O)cc2C(=O)N([C@@H](C)CO)C[C@H]1C`, the cytotoxicity call in the experiment on HSkMC was “inactive”. The growth inhibition call in the experiment with S. aureus RN4220 was “inactive”.

Regarding `C[C@@H]1CCCCO[C@@H](CN(C)C(=O)NC2CCCCC2)[C@@H](C)CN([C@H](C)CO)C(=O)c2cc(NC(=O)Nc3ccc(F)cc3)ccc2O1`, the cytotoxicity call in the experiment on HSkMC (human skeletal muscle cells) is “inactive”. Further, in the experiment with S. aureus RN4220, the growth inhibition call is “inactive”.

Take `O=C(N[C@@H](c1ccccc1)c1ccc2ccccc2n1)C1CCN(Cc2ccc(Oc3ccccc3)cc2)CC1`: in the experiment with HSkMC, the cytotoxicity call is “inactive”. Also, the growth inhibition call with S. aureus RN4220 was “inactive”.

Turning to `C[C@H](CO)N1C[C@H](C)[C@@H](CN(C)S(=O)(=O)c2ccc(F)cc2)Oc2ccc(NS(=O)(=O)c3ccccc3)cc2CC1=O`, the cytotoxicity call with HSkMC was “inactive”. Besides, the growth inhibition call with S. aureus RN4220 is “inactive”.
